Experimental data taken from the supplement of paper PMC10369915.
This is one part of the list. Rule as the data show it: active = 3.2 or more and inactive = the rest. The signal is at background level for most entries.

These binders were tested against SHP2 C-SH2 domain E139D (assay: enrichment score (SH2-bound / input frequency) (ratio); bacterial display of known human phosphotyrosine sites (pTyr-Var adds point mutants) read by sequencing; higher = stronger binding; tyrosines were phosphorylated by kinases first). Details: peptide library: pTyr-Var.
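Also: displayed peptides selected on beads carrying the immobilized SH2 domain, with library peptides lacking any tyrosine serving as negative controls.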

Row | Binder | enrichment score
1 | AALRLYHVSDS [VIL1_Y256_K254R] | inactive: 1.06
2 | VKPENYRRLDV [VHL_Y175_I180V] | inactive: 0.613
3 | KNNSIYVLANI [VNN1_Y134_V136L] | inactive: 1.71
4 | SHNELYFEEAE [VANGL1_Y344_YF] | inactive: 0.515
5 | AKLNIYKRKVE [VWA3B_Y918] | inactive: 0.576
6 | WNEVGYDDIGG [VCP_Y203_L198W] | inactive: 0.833
7 | IVRSLYEDQED [VHL_Y185_L188Q] | inactive: 0.87
8 | RRIHSYRGRLW [VHL_Y112_H115R] | inactive: 0.21
9 | CEQELYSQLVY [WAS_Y102_W97C] | inactive: 0.865
10 | NPQKSYFIRLY [WAS_Y83] | inactive: 0.756
11 | RLGDLYEEEMR [VIM_Y150] | inactive: 0.901
12 | GVASDYKCIDP [VPS13B_Y1991] | inactive: 0.781
13 | RRIHSYRSHLW [VHL_Y112_G114S] | inactive: 0.227
14 | IVRSRYEDLED [VHL_Y185_L184R] | inactive: 0.247
15 | IVRSLYEDLED [VHL_Y185] | inactive: 0.917
16 | SVMAEYGLFRA [VSX2_Y219_G223R_YF] | inactive: 0.99
17 | WFPFTYVEEDE [VAV3_Y842_S840Y_YF] | inactive: 1.8
18 | SVMAEYGLYAA [VSX2_Y219_G223A] | inactive: 0.846

Each binder was assayed against SHP2 C-SH2 domain wild-type in the same assay as above. Details: peptide library: pTyr-Var.

Row | Binder | enrichment score
19 | AALRLYHVSDS [VIL1_Y256_K254R] | inactive: 0.724
20 | VKPENYRRLDV [VHL_Y175_I180V] | inactive: 0.578
21 | KNNSIYVLANI [VNN1_Y134_V136L] | inactive: 1.61
22 | SHNELYFEEAE [VANGL1_Y344_YF] | inactive: 0.438
23 | AKLNIYKRKVE [VWA3B_Y918] | inactive: 0.565
24 | WNEVGYDDIGG [VCP_Y203_L198W] | inactive: 0.635
25 | IVRSLYEDQED [VHL_Y185_L188Q] | inactive: 0.964
26 | RRIHSYRGRLW [VHL_Y112_H115R] | inactive: 0.289
27 | CEQELYSQLVY [WAS_Y102_W97C] | inactive: 1.42
28 | NPQKSYFIRLY [WAS_Y83] | inactive: 0.783
29 | RLGDLYEEEMR [VIM_Y150] | inactive: 0.768
30 | GVASDYKCIDP [VPS13B_Y1991] | inactive: 0.786
31 | RRIHSYRSHLW [VHL_Y112_G114S] | inactive: 0.219
32 | IVRSRYEDLED [VHL_Y185_L184R] | inactive: 0.222
33 | IVRSLYEDLED [VHL_Y185] | inactive: 0.891
34 | SVMAEYGLFRA [VSX2_Y219_G223R_YF] | inactive: 0.823
35 | WFPFTYVEEDE [VAV3_Y842_S840Y_YF] | inactive: 1.57
36 | SVMAEYGLYAA [VSX2_Y219_G223A] | inactive: 0.697

What follows are binders tested against SHP2 N-SH2 domain L43F in the same assay as above. Details: peptide library: pTyr-Var.

Row | Binder | enrichment score
37 | AALRLYHVSDS [VIL1_Y256_K254R] | inactive: 0.957
38 | VKPENYRRLDV [VHL_Y175_I180V] | inactive: 0.548
39 | KNNSIYVLANI [VNN1_Y134_V136L] | inactive: 1.73
40 | SHNELYFEEAE [VANGL1_Y344_YF] | inactive: 0.454
41 | AKLNIYKRKVE [VWA3B_Y918] | inactive: 0.422
42 | WNEVGYDDIGG [VCP_Y203_L198W] | inactive: 0.859
43 | IVRSLYEDQED [VHL_Y185_L188Q] | inactive: 0.917
44 | RRIHSYRGRLW [VHL_Y112_H115R] | inactive: 0.262
45 | CEQELYSQLVY [WAS_Y102_W97C] | inactive: 0.965
46 | NPQKSYFIRLY [WAS_Y83] | inactive: 0.639
47 | RLGDLYEEEMR [VIM_Y150] | inactive: 0.923
48 | GVASDYKCIDP [VPS13B_Y1991] | inactive: 0.66
49 | RRIHSYRSHLW [VHL_Y112_G114S] | inactive: 0.325
50 | IVRSRYEDLED [VHL_Y185_L184R] | inactive: 0.271
51 | IVRSLYEDLED [VHL_Y185] | inactive: 0.839
52 | SVMAEYGLFRA [VSX2_Y219_G223R_YF] | inactive: 0.96
53 | WFPFTYVEEDE [VAV3_Y842_S840Y_YF] | active: 3.74
54 | SVMAEYGLYAA [VSX2_Y219_G223A] | inactive: 1.03

These binders were tested against SHP2 N-SH2 domain T42A in the same assay as above. Details: peptide library: pTyr-Var.

Row | Binder | enrichment score
55 | AALRLYHVSDS [VIL1_Y256_K254R] | inactive: 0.804
56 | VKPENYRRLDV [VHL_Y175_I180V] | inactive: 0.607
57 | KNNSIYVLANI [VNN1_Y134_V136L] | inactive: 1.75
58 | SHNELYFEEAE [VANGL1_Y344_YF] | inactive: 0.478
59 | AKLNIYKRKVE [VWA3B_Y918] | inactive: 0.559
60 | WNEVGYDDIGG [VCP_Y203_L198W] | inactive: 0.626
61 | IVRSLYEDQED [VHL_Y185_L188Q] | inactive: 0.6
62 | RRIHSYRGRLW [VHL_Y112_H115R] | inactive: 0.295
63 | CEQELYSQLVY [WAS_Y102_W97C] | inactive: 0.823
64 | NPQKSYFIRLY [WAS_Y83] | inactive: 0.635
65 | RLGDLYEEEMR [VIM_Y150] | inactive: 0.922
66 | GVASDYKCIDP [VPS13B_Y1991] | inactive: 0.792
67 | RRIHSYRSHLW [VHL_Y112_G114S] | inactive: 0.302
68 | IVRSRYEDLED [VHL_Y185_L184R] | inactive: 0.312
69 | IVRSLYEDLED [VHL_Y185] | inactive: 0.927
70 | SVMAEYGLFRA [VSX2_Y219_G223R_YF] | inactive: 0.993
71 | WFPFTYVEEDE [VAV3_Y842_S840Y_YF] | inactive: 2.12
72 | SVMAEYGLYAA [VSX2_Y219_G223A] | inactive: 0.836

Each binder was assayed against SHP2 N-SH2 domain T52S in the same assay as above. Details: peptide library: pTyr-Var.

Row | Binder | enrichment score
73 | AALRLYHVSDS [VIL1_Y256_K254R] | inactive: 0.891
74 | VKPENYRRLDV [VHL_Y175_I180V] | inactive: 0.547
75 | KNNSIYVLANI [VNN1_Y134_V136L] | inactive: 1.6
76 | SHNELYFEEAE [VANGL1_Y344_YF] | inactive: 0.488
77 | AKLNIYKRKVE [VWA3B_Y918] | inactive: 0.613
78 | WNEVGYDDIGG [VCP_Y203_L198W] | inactive: 0.86
79 | IVRSLYEDQED [VHL_Y185_L188Q] | inactive: 0.786
80 | RRIHSYRGRLW [VHL_Y112_H115R] | inactive: 0.234
81 | CEQELYSQLVY [WAS_Y102_W97C] | inactive: 0.789
82 | NPQKSYFIRLY [WAS_Y83] | inactive: 0.627
83 | RLGDLYEEEMR [VIM_Y150] | inactive: 0.713
84 | GVASDYKCIDP [VPS13B_Y1991] | inactive: 0.686
85 | RRIHSYRSHLW [VHL_Y112_G114S] | inactive: 0.159
86 | IVRSRYEDLED [VHL_Y185_L184R] | inactive: 0.301
87 | IVRSLYEDLED [VHL_Y185] | inactive: 0.747
88 | SVMAEYGLFRA [VSX2_Y219_G223R_YF] | inactive: 1.14
89 | WFPFTYVEEDE [VAV3_Y842_S840Y_YF] | active: 4.79
90 | SVMAEYGLYAA [VSX2_Y219_G223A] | inactive: 1.05

What follows are binders tested against SHP2 N-SH2 domain wild-type in the same assay as above. Details: peptide library: pTyr-Var.

Row | Binder | enrichment score
91 | AALRLYHVSDS [VIL1_Y256_K254R] | inactive: 0.939
92 | VKPENYRRLDV [VHL_Y175_I180V] | inactive: 0.669
93 | KNNSIYVLANI [VNN1_Y134_V136L] | inactive: 1.65
94 | SHNELYFEEAE [VANGL1_Y344_YF] | inactive: 0.693
95 | AKLNIYKRKVE [VWA3B_Y918] | inactive: 0.555
96 | WNEVGYDDIGG [VCP_Y203_L198W] | inactive: 0.812
97 | IVRSLYEDQED [VHL_Y185_L188Q] | inactive: 0.734
98 | RRIHSYRGRLW [VHL_Y112_H115R] | inactive: 0.237
99 | CEQELYSQLVY [WAS_Y102_W97C] | inactive: 1.36
100 | NPQKSYFIRLY [WAS_Y83] | inactive: 0.813
101 | RLGDLYEEEMR [VIM_Y150] | inactive: 1.05
102 | GVASDYKCIDP [VPS13B_Y1991] | inactive: 1.28
103 | RRIHSYRSHLW [VHL_Y112_G114S] | inactive: 0.171
104 | IVRSRYEDLED [VHL_Y185_L184R] | inactive: 0.387
105 | IVRSLYEDLED [VHL_Y185] | inactive: 0.75
106 | SVMAEYGLFRA [VSX2_Y219_G223R_YF] | inactive: 1.02
107 | WFPFTYVEEDE [VAV3_Y842_S840Y_YF] | inactive: 2.08
108 | SVMAEYGLYAA [VSX2_Y219_G223A] | inactive: 0.793
